Source: PubChem BioAssay AID624296 (National Center for Advancing Translational Sciences (NCATS), 2012)
The whole screen tested about 350,000 compounds, of which about 9,900 (2.8%) were called active. Inconclusive results, whose numbers are uncertain, are shown with a selection of clear calls. The call rests on the fitted dose curve; in most records, active means well fitted activation curve with a large enough effect; inconclusive means small, poorly fitted or top-dose-only effect; inactive means no such curve, though single readings can be large or run the other way. Potencies of inconclusive entries are left out as doubtful fits.

Assay: A quantitative high throughput screen for small molecules that induce DNA re-replication in MCF 10a normal breast cells. Further: nearly all actives have a fitted effect of over 50% in size. On activity, positive = re-replication: % of control where 0% means no effect.
Details: MCF 10A DNA re-replication, Hoechst nuclear intensity, 48 h; activity, positive = re-replication: at 46.1 µM (top of the series)
Potency means the concentration at half of the fitted maximal effect; tags describe the fitted curve by direction and shape.

Row | Structure (SMILES) | Potency | activity, positive = re-replication
1 | O=C(NCC1CCCO1)C(c1cccs1)N(C(=O)Cn1nnc(-c2cccs2)n1)C1CCCC1 (centres undefined) | inactive | –
2 | Cc1ccc2nc(N3CCN(C=O)CC3)nc(-c3ccccc3)c2c1 | inconclusive [activator, single point] | –
3 | CC(NC(=O)CCl)c1ccccc1Br (centres undefined) | inconclusive [activator, single point] | –
4 | CN(C)c1cccc(C(=O)N(C)C2CCCN(Cc3ccccc3F)C2)c1 (centres undefined) | inactive | –
5 | COc1cnc(-c2ccccn2)nc1Sc1ccccc1Cl | inconclusive [activator, single point] | –
6 | CC(C)=CC1C(C(=O)Nc2ccc(S(=O)(=O)N3CCOCC3)cc2)C1(C)C (centres undefined) | inconclusive [activator, partial curve, poor fit] | –
7 | Nc1nnnn1/N=C/c1ccc(Br)cc1 | inconclusive [activator, single point] | –
8 | Cc1cc(C)n(-c2nc3c(c(=O)[nH]c(=O)n3C)n2CC(O)COc2ccc(Cl)cc2Cl)n1 (centres undefined) | inconclusive [activator, partial curve, poor fit] | –
9 | CN(C)S(=O)(=O)c1ccc(NC(=O)N2CCN(c3cccc(C(F)(F)F)c3)CC2)cc1 | inconclusive [activator, partial curve, poor fit] | –
10 | O=C(NCC1CCCO1)C1CCCN(S(=O)(=O)c2cc(Cl)ccc2Cl)C1 (centres undefined) | inconclusive [activator, partial curve, poor fit] | –
11 | CCC(CC)c1nnc(NC(=O)c2cc([N+](=O)[O-])ccc2N2CCOCC2)s1 | inconclusive [activator, single point] | –
12 | Cc1cc(NC(C)c2ccccc2)n2ncc(-c3ccccc3)c2n1 (centres undefined) | inconclusive [activator, single point] | –
13 | COCCCn1[nH]c2c3c(ccc2c1=O)C(=O)c1ccccc1C3=O | inconclusive [activator, partial curve, poor fit] | –
14 | CC(Oc1ccc2c(c1)c1ccnc3c4ccccc4c(=O)n2c13)C(=O)NCCN1CCOCC1 (centres undefined) | active: 1.64 µM | –
15 | Cc1ccc(NC(=O)CN2C(=O)S/C(=C\c3cccn3-c3cccc(C(=O)O)c3)C2=O)cc1C | inconclusive [activator, single point] | –
16 | CCc1ccc(CNC(=O)CC2C(=O)NCCN2Cc2ccccc2F)nc1 (centres undefined) | inactive | –
17 | O=C(CCCN1C(=O)/C(=C/c2ccccc2)SC1=S)Nc1ccccc1O | inconclusive [activator, full curve] | –
18 | O=C(Oc1c(CN2CCOCC2)cc(Cl)c2cccnc12)c1ccccc1Br | inconclusive [activator, single point] | –
19 | Cc1ccc(-n2nc(C)c3c2OC(N)=C(C#N)C3c2ccc(C)o2)cc1 (centres undefined) | inconclusive [activator, single point] | –
20 | O=[N+]([O-])c1cc(F)cc(F)c1Nc1cc(F)cc(F)c1 | inactive | –
21 | Cc1cc(NC(=O)NC(=O)c2ccccc2NC(=O)C(C)N)ccc1Oc1ncc(Br)cn1 (centres undefined) | – | inconclusive: 105% [activator]
22 | Fc1ccc(-n2c(-c3cc(C4CC4)[nH]n3)n[nH]c2=S)cc1Cl | inconclusive [activator, single point] | –
23 | CC(C)CN(CC(C)C)C1=N/C(=C\c2ccco2)C(=O)N1c1ccccc1 | active: 14.6 µM | –

Row | Structure (SMILES) | Potency | activity, positive = re-replication
24 | O=C(Nc1ccc(Oc2ccccc2)nc1)C1CCCCN1Cc1ccc(OCCO)cc1 (centres undefined) | inactive | –
25 | CC/C(Cc1ccccc1)=N/NC(=O)c1cccc(Br)c1 | inactive | –
26 | COc1ccc(Cc2c(Cl)ncnc2Cl)cc1 | inconclusive [activator, partial curve, poor fit] | –
27 | O=C(Nc1ccc(S(=O)(=O)N2CCCC2)cc1)c1ccccc1 | inactive | –
28 | CCC1CCC2(CC1)NC(=O)N(CC(=O)Nc1ccc(OC)cc1)C2=O (centres undefined) | inconclusive [activator, single point] | –
29 | O=C(Nc1cccnc1Cl)c1cc([N+](=O)[O-])ccc1Cl | inconclusive [activator, single point] | –
30 | CN1CCN(/N=C/c2c3ccccc3c(Cl)c3ccccc23)CC1 | inconclusive [activator, single point] | –
31 | Clc1ccc(OCc2cn3cccnc3n2)c2ncccc12 | inactive | –
32 | COc1ccc(-c2csc(Nc3cccnc3)n2)cc1OC | inactive | –
33 | C(=N\N(c1ccccc1)c1ccccc1)/c1ccc(N2CCOCC2)s1 | inconclusive [activator, single point] | –
34 | Cc1c(C(=O)N2CCN(c3ccccc3F)CC2)sc2nc(-c3ccccc3)cn12 | inactive | –
35 | O=c1c2ccccc2cnn1Cc1ccc(Cl)c(Cl)c1 | inactive | –
36 | CCOC(=O)c1c(NC(=O)CSc2nnc(C)o2)sc(C)c1C | inactive | –
37 | Cn1c(N)c(C(=O)COC(=O)COc2ccc(Cl)cc2Cl)c(=O)n(C)c1=O | inactive | –
38 | Cc1ccc(C(=O)N/N=C\c2cc3c(cc2Br)OCO3)s1 | inconclusive [activator, partial curve, poor fit] | –
39 | Cc1nc2c(-c3ccc(F)cc3)c(C)nn2c(C)c1CCC(=O)NC(C)CCc1ccco1 (centres undefined) | inconclusive [activator, single point] | –
40 | c1ccc(CCNc2ncnc3scc(C4COc5ccccc5O4)c23)cc1 (centres undefined) | inconclusive [activator, partial curve, poor fit] | –
41 | COc1ccc(-c2csc(NC(=O)c3cccc(S(=O)(=O)N4CCN(C)CC4)c3)n2)cc1 | inconclusive [activator, partial curve, poor fit] | –
42 | CCOC(=O)CSC1=NC(=O)CS1 | active: 20.6 µM | –
43 | CCOc1ccc2nc(SCC(=O)NC3CCCc4ccccc43)sc2c1 (centres undefined) | inconclusive [activator, full curve, poor fit] | –
44 | COc1cc2c(cc1OC)CN(C(=O)C1CCC(=O)N(CCCN3CCOCC3)C1)CC2 (centres undefined) | inactive | –
45 | CSc1nc(SCC(=O)O)c2c3c(sc2n1)COC(C)(C)C3 | inactive | –
46 | COc1ccc(NC(=O)C2CCCN(S(=O)(=O)c3ccc4[nH]c(=O)ccc4c3)C2)cc1 (centres undefined) | inconclusive [activator, partial curve, poor fit] | –

Row | Structure (SMILES) | Potency | activity, positive = re-replication
47 | CCOc1ccc(NC(=O)CSc2nnc(C34CC5CC(CC(C5)C3)C4)n2C)cc1 | inconclusive [activator, partial curve, poor fit] | –
48 | COC(=O)C1CCN(C(=O)COC(=O)CCc2nc3ccccc3c(=O)[nH]2)CC1 | inconclusive [activator, partial curve, poor fit] | –
49 | Cc1ccc2nsnc2c1NC(=O)c1ccc(-c2cc(Cl)ccc2Cl)o1 | inactive | –
50 | CSc1sc(C)cc1C1C(C#N)=C(N)N(c2cccnc2)C2=C1C(=O)CCC2 (centres undefined) | inconclusive [activator, partial curve, poor fit] | –
51 | O=C(C1=C[C@H](c2csc3ccccc23)C[C@H](OCCCCO)O1)N1CCN(Cc2ccc3c(c2)OCO3)CC1 | inconclusive [activator, partial curve, poor fit] | –
52 | Cn1nnnc1SCC(=O)Nc1ccccc1Cc1ccccc1 | inconclusive [activator, single point] | –
53 | CCN1CCN(C(=S)Nc2ccc3nc(N4CCN(CC)CC4)cc(C)c3c2)CC1 | inconclusive [activator, partial curve, poor fit] | –
54 | CN(C)Cc1nnnn1-c1ccccc1 | inactive | –
55 | COc1ccc(Nc2nc(S(=O)(=O)c3ccc(C)cc3)c(Cl)s2)cc1 | inconclusive [activator, single point] | –
56 | C(=N/Nc1cc(N2CCOCC2)nc(N2CCOCC2)n1)/c1ccccc1 | active: 23.1 µM | –
57 | COc1ccc(CCNC(=O)Cn2nc(C)c3c(C)n(-c4ccccc4)nc3c2=O)c(OC)c1 | inactive | –
58 | Cc1nnc(SCC(=O)N2CC(=O)Nc3ccccc32)s1 | inconclusive [activator, partial curve, poor fit] | –
59 | CCOC(=O)c1c(C)[nH]c(C)c1S(=O)(=O)NCC1CCN(Cc2cccc(F)c2)CC1 | inconclusive [activator, partial curve, poor fit] | –
60 | O=C(/C=C/c1ccc(Cl)cc1Cl)NC(=S)Nc1ccccn1 | inactive | –
61 | CCOc1ccc2[nH]c3c(N4CCc5ccccc5C4)ncnc3c2c1 | active: 9.2 µM | –
62 | CCOC(=O)c1ccc(NC(=O)CSc2ccc(-c3ccccn3)nn2)cc1 | inconclusive [activator, single point] | –
63 | COc1ccc(S(=O)(=O)Nc2ccccc2C(=O)NCc2cccnc2)cc1 | inconclusive [activator, partial curve, poor fit] | –
64 | COc1ccc(NC(=O)CC2C(=O)N(C)C(=S)N2CCc2ccccc2)cc1 (centres undefined) | inconclusive [activator, single point] | –
65 | COc1ccc(OC)c(N2CC(O)=C(c3nc4ccccc4s3)C2=N)c1 | inactive | –
66 | O=S(=O)(Nc1nc(-c2sccc2Cl)cs1)c1cc(Cl)ccc1Cl | active: 8.2 µM | –
67 | Cc1c(CN2CCN(CC(C)C)C(CCO)C2)[nH]c2ccc(Cl)cc12 (centres undefined) | inconclusive [activator, partial curve, poor fit] | –
68 | CC(=O)c1cc(C#N)c(Oc2ccccc2)nc1C | inconclusive [activator, partial curve, poor fit] | –
69 | COc1cc(C2=NOC(C(=O)Nc3c(C)n(C)n(-c4ccccc4)c3=O)C2)cc(OC)c1OC (centres undefined) | inactive | –
